Source: PubChem BioAssay AID504339 (National Center for Advancing Translational Sciences (NCATS), 2011)
About 17,000 (4.4%) of roughly 390,000 compounds were called active. Inconclusive results, whose numbers are uncertain, are shown with a selection of clear calls. Calls come from the whole dose curve; as a rule, active = well fitted inhibition curve with a large enough effect; inconclusive = small, poorly fitted or top-dose-only effect; inactive = no such curve, though single readings can be large or run the other way. A potency beside an inconclusive call is a rough fit, not a confirmed value.

The compounds below were run against Lysine-specific demethylase 4A (Homo sapiens) (UniProt O75164) (assay: qHTS Assay for Inhibitors of JMJD2A-Tudor Domain). Conditions: AlphaScreen JMJD2A-Tudor / H3K4me3 peptide binding; activity change, negative = inhibition: at 114 µM (top of the series).
UniProt O75164, sequence (O75164 whole entry, looked up, the tested form may be a part): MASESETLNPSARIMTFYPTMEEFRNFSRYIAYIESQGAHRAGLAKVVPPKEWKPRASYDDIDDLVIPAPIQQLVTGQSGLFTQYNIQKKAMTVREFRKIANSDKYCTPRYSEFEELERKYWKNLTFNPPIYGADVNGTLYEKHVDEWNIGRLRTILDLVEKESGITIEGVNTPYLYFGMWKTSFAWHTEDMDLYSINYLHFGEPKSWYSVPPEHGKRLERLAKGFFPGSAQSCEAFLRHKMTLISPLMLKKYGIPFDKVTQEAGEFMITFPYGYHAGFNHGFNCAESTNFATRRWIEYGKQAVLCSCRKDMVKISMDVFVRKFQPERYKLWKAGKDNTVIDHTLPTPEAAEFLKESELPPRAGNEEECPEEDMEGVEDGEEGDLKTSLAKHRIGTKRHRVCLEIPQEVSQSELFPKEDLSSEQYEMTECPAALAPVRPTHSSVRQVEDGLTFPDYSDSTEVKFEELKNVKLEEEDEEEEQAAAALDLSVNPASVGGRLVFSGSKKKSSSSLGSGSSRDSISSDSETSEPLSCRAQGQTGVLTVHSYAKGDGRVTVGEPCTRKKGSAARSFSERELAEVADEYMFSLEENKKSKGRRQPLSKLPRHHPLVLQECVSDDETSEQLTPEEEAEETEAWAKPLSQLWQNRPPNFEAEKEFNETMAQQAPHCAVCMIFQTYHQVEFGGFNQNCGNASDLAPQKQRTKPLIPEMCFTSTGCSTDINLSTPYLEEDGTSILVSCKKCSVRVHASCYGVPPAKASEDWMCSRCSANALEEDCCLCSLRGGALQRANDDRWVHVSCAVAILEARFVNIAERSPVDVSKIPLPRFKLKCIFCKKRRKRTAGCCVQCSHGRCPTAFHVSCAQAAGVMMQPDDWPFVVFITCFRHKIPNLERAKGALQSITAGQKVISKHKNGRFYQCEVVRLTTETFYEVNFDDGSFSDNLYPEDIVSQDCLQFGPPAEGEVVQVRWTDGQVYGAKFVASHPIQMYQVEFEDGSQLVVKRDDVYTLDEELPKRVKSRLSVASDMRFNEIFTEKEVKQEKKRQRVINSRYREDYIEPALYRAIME
% is set by controls: 0 for no effect and ±100 for the full control effect; potency is the fitted concentration of half-maximal effect; tags give direction and shape of the fitted curve.
Note: nearly all actives have a fitted effect of over 50% in size.

SMILES | Potency | activity change, negative = inhibition
CCCn1c(NCc2ccco2)nc2c1c(=O)n(C)c(=O)n2C | inconclusive: 79.4 µM [inhibitor, partial curve] | –
COC(=O)C1=C(C)NC2=C(C(=O)C(C(=O)OC)C(c3ccc(OC)cc3)C2)C1c1ccccn1 (stereo not drawn) | inconclusive: 35.5 µM [inhibitor, single point] | –
Cc1cccc(C(=O)Nc2ccc(C(=O)N/N=C/c3ccco3)cc2)c1 | active: 44.7 µM | –
CCc1cccc(C)c1NC(=O)C(CC)n1ncn2c(cc3cc(C)ccc32)c1=O (stereo not drawn) | – | inactive: 8.39%
O=c1c2c3c(sc2ncn1/N=C/c1ccncc1)CCCC3 | inconclusive: 89.1 µM [inhibitor, single point] | –
CN(C)CCN(C(=O)c1ccc(S(=O)(=O)N(C)c2ccccc2)cc1)c1nc2ccc(Cl)cc2s1 | inconclusive: 50.1 µM [inhibitor, partial curve] | –
Clc1ccc(-c2cnnc(-c3ccccn3)n2)cc1 | active: 10 µM | –
CCn1cc(C(=O)O)c(=O)c2cc(F)c(N3CCN(S(=O)(=O)c4ccc(NC(C)=O)cc4)CC3)cc21 | inconclusive: 56.2 µM [inhibitor, single point] | –
CN(C)c1cccc2c1c(NC(=O)Nc1ccccc1)nn2C | inconclusive: 56.2 µM [inhibitor, partial curve] | –
Cc1ccc(-n2c(SCCC(C)C)nc3sc4c(c3c2=O)CC(C)(C)OC4)cc1 | – | inactive: -14.9%
Cc1ccc(S(=O)(=O)N2CCOCC2)cc1C(=O)Nc1ccc(-c2cn3ccsc3n2)cc1 | inconclusive: 39.8 µM [inhibitor, partial curve] | –
Cc1ccc(Sc2c(C#N)c(-c3ccccc3)nn2C)cc1 | – | inactive: 133%
Oc1ccc(/C=C/c2ccccc2)c2cccnc12 | inconclusive: 20 µM [inhibitor, full curve] | –
CN(C)c1ccc(/C=N/N2CCN(Cc3ccccc3Cl)CC2)cc1 | active: 31.6 µM | –
O=C(CN1CCOCC1)NNC(=S)Nc1ccccc1 | inconclusive: 28.2 µM [inhibitor, partial curve] | –
O=C(COC(=O)c1nc(Cl)ccc1Cl)NNC(=O)c1cccs1 | – | inactive: -6.08%
Cc1cn(-c2cc(NC(=O)c3ccc(C)c(NC(=O)c4cccc(-c5cn[nH]c(=O)c5)c4)c3)cc(C(F)(F)F)c2)cn1 | inconclusive: 31.6 µM [inhibitor, partial curve] | –
COc1ccc(/C=C/C(=O)c2ccc(NS(=O)(=O)c3ccc(C)cc3)cc2)cc1O | inconclusive: 44.7 µM [inhibitor, partial curve] | –
COc1ccccc1NCCC(=O)OCC(=O)Nc1cccc(S(=O)(=O)N(C)C)c1 | inconclusive: 44.7 µM [inhibitor, partial curve, poor fit] | –
Cc1ccc(C)c(N/N=C2\CCCNC2=O)c1 | inconclusive: 44.7 µM [inhibitor, partial curve] | –
Cn1c(=O)n(CCc2ccccc2)c(=O)c2c1nc1n2CCCN1CCc1ccccc1 | inconclusive: 39.8 µM [inhibitor, full curve, poor fit] | –
C=CCOc1ccc(/C(O)=C2\C(=O)C(=O)N(CCCOC)C2c2ccncc2)cc1 (stereo not drawn) | inconclusive: 89.1 µM [inhibitor, single point] | –
CC(C)OC(=O)CN1C(=O)S/C(=C/c2ccc(N3CCCCC3)o2)C1=O | inconclusive: 56.2 µM [inhibitor, partial curve] | –

SMILES | Potency | activity change, negative = inhibition
O=C(CS(=O)(=O)c1nc(-c2ccc(Cl)cc2)cn1-c1ccccc1)Nc1ccc(F)cc1F | inconclusive: 12.6 µM [inhibitor, full curve] | –
O=C(Nc1ccc([N+](=O)[O-])cc1Cl)c1ccccc1O | inconclusive: 63.1 µM [inhibitor, partial curve, poor fit] | –
CC(C)(C)OC(=O)N1CC=C2C(C#N)=C(N)C(C#N)(C#N)C(c3cccs3)C2C1 (stereo not drawn) | – | inactive: -30.9%
Cc1ccn2c(C(=O)CSc3ccc(Cl)cc3Cl)c(C)nc2c1 | – | inactive: -9.59% [at 11.4 µM]
Cc1cccc(N(C)S(=O)(=O)c2c[nH]c3ccc([N+](=O)[O-])cc23)c1 | inconclusive: 39.8 µM [inhibitor, partial curve] | –
COc1cc(NC(=O)CC(C)n2ccnc2)cc(OC)c1 (stereo not drawn) | – | inactive: -4.9%
CCC(C)Sc1ccc(-c2nc3ccccn3c2NCc2ccccc2)cc1OC (stereo not drawn) | inconclusive: 79.4 µM [inhibitor, partial curve] | –
O=C(c1ccc2ccccc2c1)N1CCN(c2ccc(O)cc2)CC1 | inconclusive: 44.7 µM [inhibitor, partial curve] | –
Cc1ccc2nc(NC(=O)CN3C(=O)NC4(CCCC4)C3=O)sc2c1 | – | inactive: -10.8%
COc1ccccc1C1/C(=C(\O)c2ccc3c(c2)OCCO3)C(=O)C(=O)N1Cc1cccnc1 (stereo not drawn) | active: 50.1 µM | –
CCOCCCNC(=O)c1cc2c(=O)[nH]c3ccccc3c2n1C | inconclusive: 3.55 µM [inhibitor, partial curve, poor fit] | –
CN(c1ccccc1)S(=O)(=O)c1ccc(NC(=S)NC(=O)C2CC2)cc1 | inconclusive: 63.1 µM [inhibitor, single point] | –
O=C(O)/C=C/C(=O)Nc1ccc(SC(F)(F)C(F)(F)C(F)(F)F)cc1 | – | inactive: 13%
O=C(c1ccccc1)n1nc(-c2ccco2)nc1NCc1ccccc1Cl | – | inactive: -2.78%
CCc1ccccc1NC(=O)Nc1cc(C(=O)NCc2ccc(OC)cc2)ccc1N1CCCC1 | – | inactive: -2.65%
COc1ccc(-c2[nH]ncc2-c2cnn(-c3ccccc3)c2)c(O)c1 | inconclusive: 63.1 µM [inhibitor, partial curve, poor fit] | –
COc1c(Cl)cc(Cl)cc1CNCCNCCO | inconclusive: 39.8 µM [inhibitor, partial curve, poor fit] | –
COc1cc(C2C3=C(CC(C)(C)CC3=O)NC3=C2C(=O)c2ccccc23)ccc1O (stereo not drawn) | inconclusive: 63.1 µM [inhibitor, partial curve] | –
CCC(=O)N1CCN(c2ccc(NC(=S)NC(=O)c3cc4ccccc4o3)cc2)CC1 | inconclusive: 20 µM [inhibitor, partial curve] | –
O=C(CN1CCCc2ccccc21)Nc1ccccc1[N+](=O)[O-] | inconclusive: 63.1 µM [inhibitor, partial curve, poor fit] | –
COC(=O)c1[nH]c(C)c(/C(O)=C2\C(=O)C(=O)N(CCCN3CCOCC3)C2c2ccccn2)c1C (stereo not drawn) | inconclusive: 89.1 µM [inhibitor, single point] | –
O=C(O)C1Nc2c(C(F)(F)F)ccc(Cl)c2C2C=CCC12 (stereo not drawn) | – | inactive: -26.1%
O=C(C1CCCCN1S(=O)(=O)c1ccccc1[N+](=O)[O-])N1CCCCC1 (stereo not drawn) | – | inactive: -7.1%

SMILES | Potency | activity change, negative = inhibition
O=C(CN1C(=O)S/C(=C\c2ccccc2)C1=O)Nc1cc([N+](=O)[O-])ccc1O | inconclusive: 56.2 µM [inhibitor, partial curve] | –
COc1ccc(C)cc1Nc1n[n+](-c2ccccc2)c(-c2cc([N+](=O)[O-])cc(OC)c2O)s1 | inconclusive: 63.1 µM [inhibitor, partial curve] | –
Cc1ccc(C)c(CN2C(=O)CSc3ccc(C(=O)NCCc4ccc(Cl)cc4)cc32)c1 | inconclusive: 100 µM [inhibitor, partial curve] | –
O=C(NCc1ccco1)c1cc(S(=O)(=O)N2CCCc3ccccc32)ccc1Cl | inconclusive: 50.1 µM [inhibitor, partial curve] | –
Cn1nc(C(F)(F)F)c(C#N)c1N1CCN(c2ccccc2)CC1 | – | inactive: -8.24%
CCCc1cc(C(=O)OCC(=O)N2CCN(c3ccc(OC)cc3)CC2)sc1C | inconclusive: 20 µM [inhibitor, full curve] | –
CCCc1nc(SCC(=O)NNC(=O)C2CCCCC2)c2ccccc2n1 | – | inactive: -12.4%
Oc1ccccc1C1C=C(c2ccc3c(c2)OCO3)NC(c2cccc(Br)c2)N1 (stereo not drawn) | inconclusive: 50.1 µM [inhibitor, partial curve, poor fit] | –
CO/N=C/c1ccc(Sc2ccc(C)cc2)c([N+](=O)[O-])c1 | inconclusive: 39.8 µM [inhibitor, partial curve] | –
Cc1ccc(CN(C(=O)COc2ccc(Cl)cc2Cl)C2CCS(=O)(=O)C2)o1 (stereo not drawn) | inconclusive: 56.2 µM [inhibitor, partial curve, poor fit] | –
CC1=NN(C(=O)Cc2ccc(C)cc2)C(O)(c2cccnc2)C1 (stereo not drawn) | inconclusive: 31.6 µM [inhibitor, partial curve] | –
N#Cc1cc2c([nH]c1=S)CCCCCC2 | active: 3.16 µM | –
CCN(CC)S(=O)(=O)c1cccc(-c2nnc(-c3ccc(C)cc3)o2)c1 | inconclusive: 100 µM [inhibitor, single point] | –
Cc1cc(S(=O)(=O)NCC(c2ccc(N(C)C)cc2)N2CCOCC2)ccc1F (stereo not drawn) | inconclusive: 63.1 µM [inhibitor, partial curve, poor fit] | –
CCOC(=O)CSc1nn(C)c(=S)s1 | – | inactive: -35.2%
O=c1c2oc3ccccc3c2[nH]c(=S)n1-c1ccc(F)cc1 | – | inactive: 6.35%
COc1cc2c(cc1OC)CN(C(=O)c1cccc([N+](=O)[O-])c1)CC2 | active: 50.1 µM | –
O=C(C[n+]1ccccc1)N/N=C/c1cc(Br)ccc1F | inconclusive: 89.1 µM [inhibitor, single point] | –
CCOC(=O)C1CCCN(C(=O)c2cc3c(OC)c(OC)c(OC)cc3[nH]2)C1 (stereo not drawn) | – | inactive: -12.3%
Oc1ccc(Br)cc1/C=N/Nc1ccccn1 | inconclusive: 89.1 µM [inhibitor, partial curve] | –
CC(C)(C)c1cn(-c2ccc(F)cc2)c(=S)[nH]1 | active: 25.1 µM | –
CCN(CC)C(=O)C(=O)c1cccn1-c1cccc(Cl)c1C#N | inconclusive: 44.7 µM [inhibitor, partial curve] | –
